In all, about 110,000 compounds were measured (“z-score”: median about -0.1, highest 2% from about 2 on). The list shows a part of the results. Activity calls are given as the source filed them.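 How the source made its calls: active means z-score in the third read window above 3 or below -3; inactive means the rest.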
Molecular target: Metabotropic glutamate receptor 8 (Rattus norvegicus) (UniProt P70579)
Experiment: rat mGluR8 modulators via GIRK flux, primary screen, cell-based, thallium flux, HTS (AID 488969)
Conditions: HEK293 rat mGluR8, GIRK (G protein-gated inwardly rectifying potassium channel) thallium flux, FluoZin2; at 10 µM; stronger effect = higher value; submaximal glutamate (EC20) added with thallium

UniProt P70579, sequence (P70579 whole entry, looked up): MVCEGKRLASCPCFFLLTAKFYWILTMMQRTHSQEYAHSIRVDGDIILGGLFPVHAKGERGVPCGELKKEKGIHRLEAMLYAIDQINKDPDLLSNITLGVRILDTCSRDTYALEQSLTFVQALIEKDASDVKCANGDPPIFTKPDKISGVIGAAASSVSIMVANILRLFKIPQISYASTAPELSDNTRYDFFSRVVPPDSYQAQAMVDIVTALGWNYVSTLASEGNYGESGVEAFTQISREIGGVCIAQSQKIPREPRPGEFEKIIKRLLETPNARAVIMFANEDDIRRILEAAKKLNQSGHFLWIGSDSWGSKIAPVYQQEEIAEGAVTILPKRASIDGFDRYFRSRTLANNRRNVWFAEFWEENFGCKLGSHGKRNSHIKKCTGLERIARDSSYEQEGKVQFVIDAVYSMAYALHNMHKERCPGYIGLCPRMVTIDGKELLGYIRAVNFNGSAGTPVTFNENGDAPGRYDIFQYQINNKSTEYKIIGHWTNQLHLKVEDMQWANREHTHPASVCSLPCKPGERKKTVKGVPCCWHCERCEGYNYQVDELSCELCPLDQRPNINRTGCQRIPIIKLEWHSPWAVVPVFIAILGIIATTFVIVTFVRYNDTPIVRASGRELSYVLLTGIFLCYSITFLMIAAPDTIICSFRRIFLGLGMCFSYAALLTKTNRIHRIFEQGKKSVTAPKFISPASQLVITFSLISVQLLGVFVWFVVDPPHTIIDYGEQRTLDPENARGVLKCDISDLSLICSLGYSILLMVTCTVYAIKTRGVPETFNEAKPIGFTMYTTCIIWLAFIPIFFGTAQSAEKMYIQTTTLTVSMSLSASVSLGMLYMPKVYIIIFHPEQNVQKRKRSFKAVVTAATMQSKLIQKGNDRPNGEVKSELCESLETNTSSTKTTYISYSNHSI

| SMILES | z-score |
| --- | --- |
| Cc1cc2cc(CNC(=O)NC3CCCCC3)ccc2[nH]1 | -1.13 |
| O=C(NCC1CCCO1)Nc1ccc(Cl)cc1 (centres undefined) | 1.33 |
| Cn1c(CSCc2ccc(Cl)c(Cl)c2)n[nH]c1=S | -0.0279 |
| S=C(NCCc1ccccc1)N/N=C/c1cccc(Cl)c1Cl | 2.63 |
| O=C(COC(=O)C1CC(=O)N(Cc2ccccc2)C1)c1ccc(Br)cc1 (centres undefined) | -0.566 |
| COc1nccnc1NS(=O)(=O)c1ccc(NC(=S)NC(=O)c2ccc(F)c(F)c2)cc1 | -0.232 |
| O=C(Cc1ccccc1)NCCSCc1ccco1 | -0.725 |
| O=C1OC2(CCCCC2)OC(=O)C1=CNc1nc2ccccc2s1 | active: 8.02 |
| COc1cc(NC(=O)c2ccco2)c(C(=O)OCC(=O)c2c[nH]c3ccccc23)cc1OC | -0.154 |
| CCOC(=O)C1C(=O)C=C(c2cccs2)CC1c1ccccc1C (centres undefined) | -0.107 |
| Cc1ccc(Cl)cc1NC(=O)C(NS(=O)(=O)c1cccs1)c1ccccc1 (centres undefined) | -0.17 |
| Cc1cc(N2CCCCC2)ccc1[N+](=O)[O-] | -0.179 |
| C/C(CC1CC(C)OC1=O)=N\NC(N)=S (centres undefined) | -2.66 |
| Cc1cccc2c(SCC(=O)NCC3CCCO3)nc(-c3ccc(F)cc3)nc12 (centres undefined) | 0.182 |
| CCOC(=O)c1cnc(SC)nc1Sc1cc(Cl)ccc1Cl | -0.264 |
| O=C(Nc1nc2ccc(S(=O)(=O)N3CCCC3)cc2s1)c1cccs1 | -0.222 |
| O=C(NCc1cccc(C(F)(F)F)c1)c1cc(Cl)ccc1Cl | -0.401 |
| CCN(CC)c1ccc(/C=N/NS(=O)(=O)c2cccc([N+](=O)[O-])c2)cc1 | 0.533 |
| COc1ccc(C(CC(=O)Nc2nccs2)n2cccc2)cc1 (centres undefined) | -0.82 |
| CN(C)CCNC(=O)c1ccc(COc2ccc(Cl)cc2Cl)cc1 | -0.247 |
| O=C(CN1CCCCCC1)N/N=C/c1cccs1 | -0.0704 |
| NC(=O)c1c(N)sc2c1CCCCC2 | 0.451 |
| N/C(COc1ccccc1)=N\NC(=O)c1cccnc1Oc1ccccc1 | -0.277 |

| SMILES | z-score |
| --- | --- |
| O=c1c2ccccc2cnn1-c1ccc2ccccc2c1 | -0.124 |
| CC1(C)OC(=O)C(=NNc2ccc(Cl)cc2)C(=O)O1 | -0.142 |
| CC(C)Cc1nnc(NC(=O)Cc2ccc([N+](=O)[O-])cc2)s1 | -0.0415 |
| O=C(CN(C1CCCCC1)S(=O)(=O)c1ccc(Cl)cc1)NCc1ccncc1 | 0.589 |
| Clc1cccc(Oc2cnns2)c1Cl | -0.207 |
| COc1ccc(C2=Nc3nc(-c4ccccc4)cn3C(c3ccc(OC)cc3)C2)cc1 (centres undefined) | -0.00501 |
| CCN(C(=O)Cn1c(=O)n2nc(CCn3nc(C)cc3C)nc2c2ccccc21)c1cccc(C)c1 | -0.611 |
| CC(C)(C)Nc1nc(NC(C)(C)C)nc(-n2ccnc2)n1 | -0.351 |
| CCc1cccc(CC)c1NC(=O)CSc1nc2ccc(N3C(=O)C4C(C3=O)[C@H]3C=C[C@@H]4C3)cc2s1 (some centres undefined) | 0.706 |
| CCOc1ccc2nc(SCC(=O)c3cccs3)sc2c1 | 0.561 |
| COc1cc2ccc(=O)oc2c(O)c1OCC=C(C)C | 0.834 |
| CCOC(=O)c1cc(CC)sc1NC(=O)Cc1ccccc1 | -0.249 |
| N#CC1=C(N)Oc2c(ccc3ccccc23)C1c1cccs1 (centres undefined) | -2.19 |
| CCCOc1ccc(/C=c2\sc3nc(-c4ccco4)nn3c2=O)cc1OCC | -1.4 |
| COc1ccccc1-c1c(C)nn2c(N3CCC4(CC3)OCCO4)cc(C)nc12 | 1.46 |
| CCCCn1c(SCC(=O)OCC)nc2c1c(=O)[nH]c(=O)n2C | -0.555 |
| COc1ccc(C2=NO[C@@H]3C(=O)N(c4ccc5c(c4)OCCO5)C(=O)[C@H]23)cc1OC | 0.345 |
| O=C(CSc1nnc(COc2cccc3cccnc23)o1)N1CCN(C(=O)c2ccco2)CC1 | -0.115 |
| c1ccc2c(c1)ncn2CCOCCOCCn1cnc2ccccc21 | 1.07 |
| O=C1CCN(S(=O)(=O)c2ccccc2)C2CCCCC12 (centres undefined) | -0.114 |
| O=c1[nH]c2ccc(N/C(=N/S(=O)(=O)c3ccccc3)c3ccccc3)cc2[nH]1 | 0.0277 |
| Nc1nc2ccccc2n1CCOc1ccccc1Cl | 1.42 |
| Cc1ccc(C(=O)CNc2cccc(Cl)c2)cc1 | -0.0331 |

| SMILES | z-score |
| --- | --- |
| COc1ccc2c(c1)CCCN2C(N)=O | 0.285 |
| CCOC(=O)c1cc2c(=O)n3ccccc3nc2n(CC(C)C)c1=NC(=O)c1ccco1 | -1.06 |
| CCN1C(=O)c2cccc3c(S(=O)(=O)Nc4ccncc4)ccc1c23 | 1.2 |
| COc1ccc(NC(=O)c2ccc3ccccc3n2)cc1S(=O)(=O)N1CCCCC1 | -0.647 |
| CCc1nc(N)c(C#N)c(-c2cccn2C)c1C | -0.723 |
| CC(C)(C)c1ccc(/C([O-])=C(/C(=S)NCc2ccco2)[n+]2ccccc2)cc1 | -0.191 |
| Fc1ccccc1CNc1ccc(Cl)c(Cl)c1 | 0.179 |
| N#Cc1c(-c2ccc3c(c2)OCO3)ccn2nc(-c3cccc(C(F)(F)F)c3)nc12 | -0.221 |
| COc1ccc(S(=O)(=O)N2CCN(C(=O)c3cccs3)CC2)cc1 | 0.0417 |
| O=C1OC(Nc2ccc(Br)cc2F)c2ccccc21 (centres undefined) | -0.197 |
| CCCOc1ccc2oc(=O)c3c(c2c1)CCCN3C(=O)CN(C)Cc1ccccc1 | -0.481 |
| COC(=O)CSc1n[nH]c(-c2ccncc2)n1 | 0.0349 |
| Cc1ccc2[nH]c3c(=O)n(Cc4ccncc4)cnc3c2c1 | 0.0687 |
| COc1ccc(C(O)Cc2nc3ccccc3n2C)cc1OC (centres undefined) | -0.323 |
| CCCn1nnc(NC(=O)c2cccnc2Cl)n1 | 0.0465 |
| Oc1ccc(Cl)cc1C=NCCc1ccccc1 | -0.0626 |
| O=C(CSc1nc2ncc(Br)cc2[nH]1)c1cccc([N+](=O)[O-])c1 | 1.67 |
| O=C(NCc1cccnc1)/C(=C\c1ccc(-c2ccc(Cl)c(Cl)c2)o1)S(=O)(=O)c1ccccc1 | -0.237 |
| COc1ccc(N2C(=O)C3CCCN3C2c2cccc(OC)c2)cc1 (centres undefined) | -0.0891 |
| CCOC(=O)CCNC(C(=O)OCC)c1ccccc1 (centres undefined) | 0.373 |
| COCC(=O)Oc1c(S(=O)(=O)c2ccc(C)cc2)c(C)nn1-c1ccccc1 | -0.0554 |
| CS/C(=N\S(=O)(=O)c1cccs1)Nc1cccc(Cl)c1C | -0.779 |
| COc1ccc2[nH]cc(C(O)CN3CCC(C(N)=O)CC3)c2c1 (centres undefined) | -0.153 |

| SMILES | z-score |
| --- | --- |
| CCOc1cc(-c2noc(-c3cccnc3)n2)ccc1OC | active: 3.79 |
| COc1ccc2cc3c(N)c(C(=O)NCc4ccco4)sc3nc2c1 | -0.558 |
| CCS(=O)(=O)N1Cc2ccccc2CC1C(=O)Nc1nc2ccc(C)cc2s1 (centres undefined) | 0.132 |
| CNC(=S)NNC(=O)c1sccc1OCc1ccccc1 | -0.78 |
| COc1cc2c(-c3ccc(O)cc3)nc3c(c(C)nn3-c3ccccc3)c2cc1OC | 0.0433 |
| Cc1ccccc1NC(=O)CC(O)(C(F)(F)F)C(F)(F)F | 0.117 |
| CCCSc1nc(N)c(C#N)c(-c2ccc(C)cc2)c1C#N | -0.167 |
| CC(=O)Nc1ccccc1C(=O)N1CC(C)OC(C)C1 (centres undefined) | 0.0934 |
| CCN(C(=O)COC(=O)c1cc(C)n(-c2ccc(F)cc2)c1C)C1CCS(=O)(=O)C1 (centres undefined) | -0.0278 |
| NC(=O)C1CCN(Cc2nc3ccccc3c(=O)[nH]2)CC1 | -0.276 |
| COc1cc(C(=S)N(C)C)ccc1O | 0.406 |
| CCN1CCN(c2nc3c(c(=O)[nH]c(=O)n3C)n2CCSc2nc3ccccc3s2)CC1 | -0.0151 |
| COc1ccc(-c2noc(CSc3nnc(Cc4ccccc4)n3-c3ccc(Cl)cc3)n2)cc1 | 0.663 |
| CCOC(=O)c1csc(NC(=O)c2ccccc2)n1 | 0.302 |
| CC(=O)NCCc1nc2ccccc2[nH]1 | 0.0213 |
| O=S(=O)(NCCc1cn2ccccc2n1)c1ccc2c(c1)OCCO2 | 0.3 |
| Cn1cc(/C=C(\C#N)C(=O)Nc2ncc(Cc3ccc(Cl)cc3)s2)c2ccccc21 | -0.338 |
| Cc1ccc(C(=O)C2CCN(CC(=O)Nc3nc(C)cs3)CC2)cc1 | -0.391 |
| CCNS(=O)(=O)c1ccc(OC)c(C)c1 | 0.021 |
| O=C1CSC(=Nc2cc(Cl)ccc2Cl)N1 | -1.67 |
| COCCCNc1ncnc2sc3c(c12)CCC(C)C3 (centres undefined) | -1.23 |
| O=c1oc2ccccc2c(NCc2cccc(F)c2)c1[N+](=O)[O-] | 0.725 |
| CC(=O)Nc1ccc(S(=O)(=O)NCc2ccc(C(=O)NCc3ccc(Cl)cc3)cc2)cc1 | 0.722 |

| SMILES | z-score |
| --- | --- |
| CC1Cc2ccccc2N1C(=O)CCNS(=O)(=O)c1cccc2nsnc12 (centres undefined) | 0.906 |
| Cc1ccc(-c2csc(SCC(=O)Nc3cc(C)on3)n2)cc1 | -0.101 |
| COC(=O)C(Cc1ccc(OC(=O)c2ccc(Cl)cc2)cc1)N1Cc2ccccc2C1=O (centres undefined) | -0.764 |
| Cc1ccc(OCCn2c(C3CC(=O)N(Cc4ccccc4)C3)nc3ccccc32)cc1 (centres undefined) | -0.217 |
| CCCn1cnc2c(N)c(C)c(C)cc21 | -2.1 |
| Cc1noc(C)c1C(=O)Nc1sc2c(c1C(N)=O)CCCCC2 | 0.753 |
| O=C(Cn1nc(C(F)F)cc1C(F)F)NNC(=S)Nc1ccc(F)cc1 | 0.291 |
| C=CCNC(=O)/C=C/c1ccc(C(C)C)cc1 | 0.981 |
| Cn1c(NC(=O)C2c3ccccc3Oc3ccccc32)cc(=O)n(C)c1=O | -0.0796 |
| O=C(N/N=C/c1cccc([N+](=O)[O-])c1)C1CC1c1ccccc1 (centres undefined) | -0.637 |
| COc1ccc(C(=O)OCc2cc3cccc(C)c3[nH]c2=O)cc1 | -0.397 |
| Cc1sc(NC(=S)NC(=O)c2cccs2)nc1-c1ccc(C(C)C)cc1 | -0.116 |
| Cc1ccc(C)c(OCC(=O)NCCN(C)C)c1 | 0.356 |
| COc1ccc(C)cc1S(=O)(=O)N(CC(N)=O)Cc1ccccc1 | -0.559 |
| O=C(Nc1cccc(-c2nc3ccccc3s2)c1)C1=COCCO1 | -0.63 |
| O=C(O)CCC(=O)N1CCOc2ccc(Cl)cc21 | -0.411 |
| Cc1[nH]oc(=O)c1N=Nc1c(Cl)cccc1Cl | -0.151 |
| C/C(=N\Nc1ccc(C(F)(F)F)cc1[N+](=O)[O-])C(C)C | -0.274 |
| CC(C)c1ccc(NC(=O)Cn2cccc2C2=NC(c3ccccc3)CO2)cc1 (centres undefined) | -0.0808 |
| COc1ccc(-n2cnnc2SCC(=O)Nc2cc(C(C)(C)C)nn2-c2ccccc2)cc1 | -0.0813 |
| Cc1ccc(-c2nnc(Sc3nc4ccccc4o3)c3ccccc23)cc1 | 0.082 |
| COc1cccc(CNCCc2c[nH]c3ccccc23)c1OCc1ccccc1 | 1.32 |
